According to PubChem BioAssay AID1745853 (National Center for Advancing Translational Sciences (NCATS), 2022):
The other results are listed elsewhere or left out. Further columns of the screen follow, without active or inactive calls.

Key:
Assay in all cases: Primary Screen for Target Class Profiling of Small Molecule Inhibitors of Methyltransferases
[1] = molecular target: Glycine N-methyltransferase (Homo sapiens) (UniProt Q14749); settings: purified enzyme, MTase-Glo SAH luminescence; measured here: GNMT inhibition; at 40 µM; stronger effect = lower value
Procedure, shortened: (§1)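 Each enzyme was assayed with SAM and its substrate. SAH formation detected by MTase-Glo luminescence; single-point 40 uM screen[…].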

[2] = molecular target: Guanidinoacetate N-methyltransferase (Homo sapiens) (UniProt Q14353); settings: purified enzyme, MTase-Glo SAH luminescence; measured here: GAMT inhibition; at 40 µM; stronger effect = lower value
Procedure, shortened: as §1

[3] = molecular target: Histamine N-methyltransferase (Homo sapiens) (UniProt P50135); settings: purified enzyme, MTase-Glo SAH luminescence; measured here: HNMT inhibition; at 40 µM; stronger effect = lower value
Procedure, shortened: as §1

[4] = molecular target: Nicotinamide N-methyltransferase (Homo sapiens) (UniProt P40261); settings: purified enzyme, MTase-Glo SAH luminescence; measured here: NNMT inhibition; at 40 µM; stronger effect = lower value
Procedure, shortened: as §1

[5] = molecular target: Phenylethanolamine N-methyltransferase (Homo sapiens) (UniProt P11086); settings: purified enzyme, MTase-Glo SAH luminescence; measured here: PNMT inhibition; at 40 µM; stronger effect = lower value
Procedure, shortened: as §1
On the % scale 0 is the no-effect control and ±100 the full control effect.

Compound	activity change, negative = inhibition [1]	activity change, negative = inhibition [2]	activity change, negative = inhibition [3]	activity change, negative = inhibition [4]	activity change, negative = inhibition [5]
O=C(CCn1ccc2cc(S(=O)(=O)N3CCCCC3)ccc21)N1CCN(C(=O)c2ccco2)CC1	1.18%	1.3%	1.79%	-2.37%	-1.4%
C/C1=C\CC[C@H](C)CCO[C@@H]2O[C@H](CO[C@@H]3OC[C@](O)(COC1=O)[C@H]3O)[C@@H](O)[C@H](O)[C@H]2O	5.13%	2.69%	9.55%	-7.25%	2.03%
COc1ccc(CCN2C(=O)c3cc4ccccc4n3CC2(C)C(=O)NCc2ccccc2)cc1OC (stereo not given)	-2.59%	-0.286%	0.914%	-7.35%	-2.48%
COc1cccc(NC(=O)CSc2nnc3[nH]c(=O)c(C(C)(C)C)nn23)c1	-0.358%	6.61%	-3.66%	-7.02%	-6.46%
CN(C(=O)c1ccc(F)cc1C(F)(F)F)C1CCN(c2nnc(-c3ccnn3C)c3ccccc23)CC1	-7.95%	3.67%	7.13%	-23.8%	-1.4%
Cc1ccc(NC(=O)C2N(C(C)C)C(=O)C23CCCCC3)cc1 (stereo not given)	-3.85%	-3.93%	-0.902%	-4.56%	-4.19%
CC(C)CCNC(=O)C1c2c(n(C)c3ccccc23)SCC(=O)N1CCC(C)C (stereo not given)	6.91%	3.88%	-0.189%	-8.97%	0.521%
O=C(CCn1ccc2cc(S(=O)(=O)N3CCCC3)ccc21)NC1CCCCC1	7.06%	0%	8.5%	12.7%	6.63%
CC1(C)CC[C@]2(C(=O)O)CC[C@]3(C)C(=CCC4[C@@]5(C)CC[C@H](O[C@@H]6O[C@H](C(=O)O)[C@@H](O)[C@H](O)[C@H]6O)C(C)(C)C5CC[C@]43C)C2C1 (stereo not given in full)	2.44%	-0.468%	5.29%	-13.5%	-4.83%
CN1C(=O)c2cc(C(=O)NCc3ccccc3Br)nn2CC1(C)C(=O)NC1CCCC1 (stereo not given)	3.25%	5.09%	-3.13%	3.39%	-1.03%
O=C(Cn1c(=O)n2nc(-c3ccc(F)cc3)nc2c2ccccc21)N1CCN(c2ccc(F)cc2)CC1	15.2%	0%	11.8%	9.69%	7.56%
Cc1noc([C@@H]2CN(Cc3ccc[nH]3)C[C@H]2CO)n1	-17.9%	-9.3%	-2.99%	-4.53%	-11.1%
Cc1ccc(C(=O)N2CCC(C(=O)N3CCCCCCNC(=O)CC3)CC2)s1	-3.87%	-9.3%	-3.82%	-11.9%	-6.99%
O=C1CN([S+](=O)([O-])c2ccc(F)cc2)CC(O)CN1Cc1cccs1 (stereo not given)	-3.1%	-0.555%	-1.05%	-10.4%	-6.51%
CC1(C(=O)NC2CCCCC2)Cn2c(cc3occc32)C(=O)N1CCCc1ccccc1 (stereo not given)	-13.8%	1.58%	-5.41%	-11.8%	-9.05%
NC(=O)C(=O)O	4.28%	10.2%	4.58%	-3.63%	2.64%
COc1cc(Cc2cnc(N)nc2N)cc(OC)c1OC	-12.4%	-2.65%	-3.53%	-12.9%	-2.98%
CC1CCC(N2C(=O)c3cc4sccc4n3CC2(C)C(=O)NC2CCCCC2)CC1 (stereo not given)	-0.878%	5.54%	0.56%	1.84%	-2.35%
